Molecules are shown by their SMILES. About 2,200 (0.71%) of roughly 310,000 compounds showed an effect of 50% or more. The effect is printed as a negative number. Some of the results follow.

For this assay, the target named is human ether-à-go-go-related gene (hERG) potassium channel (human, UniProt Q12809). The assay is described as follows: primary screen, population patch clamp on CHO cells stably expressing hERG.
Sequence of human ether-à-go-go-related gene (hERG) potassium channel (Q12809 whole entry, looked up): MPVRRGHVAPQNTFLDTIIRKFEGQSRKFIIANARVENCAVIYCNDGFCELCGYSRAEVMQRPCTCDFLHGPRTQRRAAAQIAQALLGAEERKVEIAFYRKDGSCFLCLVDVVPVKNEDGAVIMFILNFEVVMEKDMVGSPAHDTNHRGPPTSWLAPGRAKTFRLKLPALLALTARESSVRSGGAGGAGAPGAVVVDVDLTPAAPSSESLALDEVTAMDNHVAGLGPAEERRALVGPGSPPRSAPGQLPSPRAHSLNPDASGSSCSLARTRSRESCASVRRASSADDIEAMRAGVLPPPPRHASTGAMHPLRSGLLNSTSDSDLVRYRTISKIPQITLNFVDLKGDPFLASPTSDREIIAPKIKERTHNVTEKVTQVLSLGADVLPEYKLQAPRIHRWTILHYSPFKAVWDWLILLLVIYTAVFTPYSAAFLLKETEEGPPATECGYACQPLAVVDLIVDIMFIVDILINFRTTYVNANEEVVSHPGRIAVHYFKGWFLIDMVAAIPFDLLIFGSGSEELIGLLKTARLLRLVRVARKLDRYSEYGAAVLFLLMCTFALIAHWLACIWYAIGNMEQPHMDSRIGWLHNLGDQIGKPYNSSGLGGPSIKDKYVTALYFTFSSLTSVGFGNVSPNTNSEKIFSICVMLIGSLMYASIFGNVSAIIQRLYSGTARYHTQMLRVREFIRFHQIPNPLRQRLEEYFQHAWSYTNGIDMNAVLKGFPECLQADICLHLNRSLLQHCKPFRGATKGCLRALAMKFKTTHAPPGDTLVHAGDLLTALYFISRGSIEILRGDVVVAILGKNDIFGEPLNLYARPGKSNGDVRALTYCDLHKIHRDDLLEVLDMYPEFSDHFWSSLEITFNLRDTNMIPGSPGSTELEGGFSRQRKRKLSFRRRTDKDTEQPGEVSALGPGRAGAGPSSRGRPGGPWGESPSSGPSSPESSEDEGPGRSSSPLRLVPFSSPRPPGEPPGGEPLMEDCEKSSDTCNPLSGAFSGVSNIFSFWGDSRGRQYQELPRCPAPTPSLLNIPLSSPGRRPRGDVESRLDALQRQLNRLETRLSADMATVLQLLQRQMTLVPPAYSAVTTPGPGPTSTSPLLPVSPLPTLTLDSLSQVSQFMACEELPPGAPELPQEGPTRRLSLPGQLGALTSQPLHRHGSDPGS
As for `CCOC(=O)c1ccccc1-c1cn2cc(Cl)ccc2n1`, the “hERG current change (%, negative = inhibition) at 1uM” value was -4.73%.
In the case of `CCOC(=O)C1=C(C)OC(N)=C(C#N)C1c1cc(OC)c2c(c1)OCO2` (centres unmarked), the “hERG current change (%, negative = inhibition) at 1uM” value was -9.98%.
To `Cc1ccc(NC(=O)COC(=O)c2ccc(F)cc2Cl)c(Br)c1` belongs 13.7%; to `COc1cccc(CNc2ccc(F)c([N+](=O)[O-])c2)c1O`, 10.7%.
As for `Nc1nonc1-n1nnc(C(=O)N/N=C/c2ccc(Cl)cc2Cl)c1CN1CCOCC1`, the “hERG current change (%, negative = inhibition) at 1uM” value stood at 11.1%.
Consider `O=C(NNC(=O)c1cccc(-n2cccc2)c1)c1ccccc1`, for which the “hERG current change (%, negative = inhibition) at 1uM” value is 5.81%.
Take `CCOC(=O)c1sc(NC(=O)CSc2nnnn2-c2ccc(C)c(C)c2)nc1C`: the “hERG current change (%, negative = inhibition) at 1uM” value amounted to 9.56%.
Consider `COc1cccc(NC(=O)Cn2cnc3sc(C)c(S(=O)(=O)N4CCN(C)CC4)c3c2=O)c1`, for which the “hERG current change (%, negative = inhibition) at 1uM” value is 19.5%.
In the case of `COc1cccc(C(=O)NCc2ccc3[nH]c(C)cc3c2)c1` it was 18.8%.
In the case of `CC(=O)c1ccc(NC(=O)Cn2nc(C)cc2C)cc1` it was -24.4%; in that of `Cc1cccc2[nH]c(CN(C)C(=O)C3CCC(=O)N(CCc4ccccc4)C3)nc12` (centres unmarked), 12.6%.
In the case of `O=c1[nH]c2ccccc2n1CCCN1CCC(n2c(=O)[nH]c3cc(Cl)ccc32)CC1`, the “hERG current change (%, negative = inhibition) at 1uM” value was -46.8%.
`C=CCNC(=O)/C(=C/c1cccc([N+](=O)[O-])c1)NC(=O)c1ccco1`: the “hERG current change (%, negative = inhibition) at 1uM” value is -5.53%.
In the case of `COC(=O)C1=C(C)NC(C)=C(C(=O)OC)C1C(=O)OCC(=O)Nc1ccc(C(C)=O)cc1` it was 11.7%; in that of `CN(Cc1ccco1)C(=O)c1ccc(S(=O)(=O)N2CCCCCC2)cc1`, -2.6%.
As to `COc1cc(C(=O)Nc2cccnc2)cc(OC)c1OC`, the “hERG current change (%, negative = inhibition) at 1uM” value amounted to 9.52%.
`CCOc1c(Br)cc(C2CC(=O)Nc3cc(OC)c(OC)cc32)cc1OC` (centres unmarked): the “hERG current change (%, negative = inhibition) at 1uM” value came out at 13.2%.
To `Cc1ccn2c(=O)c(NC(=O)COc3ccccc3)c(C)nc2c1` belongs -17.4%.
In the case of `Cc1cc(=O)n(C)c(=O)n1CCCCOc1ccc([N+](=O)[O-])cc1` it was -66.8%; in that of `C=CCn1c(SCC(=O)Nc2ccc(F)cc2)nc2ccccc2c1=O`, 3.19%; in that of `O=C(/C(Cl)=C/Nc1ccc(Br)cn1)C(F)(F)F`, 16.6%.
In the case of `COc1cccc(-c2cc(C(=O)N3N=C(C)CC3(O)C(F)F)c3ccccc3n2)c1` (centres unmarked) it was 12.5%.
Regarding `CCCS(=O)(=O)N1CCN(C(=O)COc2ccc(-c3ccccc3)cc2)CC1`, the “hERG current change (%, negative = inhibition) at 1uM” value is listed as -5.86%.
For the compound `CCCCCCCCCS(=O)(=O)N/N=C/c1cccc([N+](=O)[O-])c1`, the “hERG current change (%, negative = inhibition) at 1uM” value came to 13.5%.
As for `CC1=C(C(=O)OCC2CCCCC2)C(c2ccccc2F)NC(=O)N1` (centres unmarked), the “hERG current change (%, negative = inhibition) at 1uM” value was 6.23%.
To `O=C1C=C(c2ccc3c(c2)OCO3)C[C@@H](c2ccc(Cl)cc2)C1` belongs 13.8%; to `COc1ccc(NS(=O)(=O)c2ccc(Br)cc2)cn1`, 6.28%; to `O=C1c2ccccc2S(=O)(=O)c2cc(C(=O)N3CCC(O)CC3)ccc21`, 13.7%.
`Cc1cc(C(=O)CN2CCCC2)c(C)n1-c1ccc(F)cc1`: the “hERG current change (%, negative = inhibition) at 1uM” value turned out to be 5.53%.
To `Cc1ccc(C23OCCN2CCn2nc4ccccc4c23)cc1` (centres unmarked) belongs 10%; to `Cc1cc(C)c(OCCCNCc2ccccc2)c(Br)c1.O=C(O)C(=O)O`, 10.5%; to `COc1ccc(NC(=O)c2nc[nH]c2C(=O)N[C@H](C)c2ccccc2)cc1`, 6.67%.
Turning to `CCC(SC1=N/C(=C/c2ccccc2OC)C(=O)N1c1ccccc1)C(=O)Nc1cc(C)on1` (centres unmarked), the “hERG current change (%, negative = inhibition) at 1uM” value is -0.366%.
With `O=C(N/N=C/C=C/c1ccccc1[N+](=O)[O-])c1cccs1`, the “hERG current change (%, negative = inhibition) at 1uM” value came out at 6.89%.
As to `CCOC(CNC(=O)c1cc(C)nn1-c1ccccc1)OCC`, the “hERG current change (%, negative = inhibition) at 1uM” value is -1.47%.
To `O=C(Nc1sc2c(c1C(=O)O)CCCC2)c1cccs1` belongs 10.5%; to `COc1cccc(C2/C(=C(/O)c3ccccc3)C(=O)C(=O)N2Cc2ccco2)c1` (centres unmarked), 14.3%.
In the case of `Fc1nc(F)c(F)c(NCCCNc2c(F)c(F)nc(F)c2F)c1F`, the “hERG current change (%, negative = inhibition) at 1uM” value is 9.7%.
`Cc1ccc(-n2c(O)cnc2Nc2nc(C)cc(C)n2)cc1`: the “hERG current change (%, negative = inhibition) at 1uM” value is recorded as 10.2%.
To `Cc1onc(-c2ccccc2)c1C(=O)N1CCCC1` belongs 8.51%; to `CCNc1nc(NCC)n2c(SCC(=O)Nc3cc(Cl)ccc3OC)nnc2n1`, -3%.
With `CN1CCN(/N=C/c2c3ccccc3c(Cl)c3ccccc23)CC1.Cl`, the “hERG current change (%, negative = inhibition) at 1uM” value was 5.45%.
Consider `NC(=O)Nc1ccccc1C(=O)N1CCC(O)(c2ccc(Cl)cc2)CC1`, for which the “hERG current change (%, negative = inhibition) at 1uM” value stood at 4.63%.
In the case of `CCC(C)c1ccc(S(=O)(=O)Nc2cccnc2)cc1.Cl` (centres unmarked) it was 9.63%.

These data come from PMC4336329 (PLoS ONE, 2015).
